Measured values from the supplement of paper PMC3724861.
The other results are listed elsewhere or left out.

tested on: T1, Caupolican (Caup) homeodomain DNA-binding domain; experiment: PBM E-score (8-mer, recovered from the published 9-mer minima) (E-score (dimensionless, -0.5 to 0.5)); Drosophila protein; higher = stronger relative binding preference, active = 0.31 or more
T1 sequence: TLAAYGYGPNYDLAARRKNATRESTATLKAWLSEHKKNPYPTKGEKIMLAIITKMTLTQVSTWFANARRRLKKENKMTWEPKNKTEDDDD
Method in brief: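 Caup's homeodomain DNA-binding domain (residues 214-303) was produced by in vitro transcription and translation and applied at 100 nM to custom-designed protein binding microarrays. Each value is an enrichment score giving relative binding preference for a short DNA word; higher means stronger. Published 9-mer scores were the minimum of their two constituent 8-mer scores, and the 8-mer values were recovered from those minima. A cutoff of 0.31 marks candidate binding sequences.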

Sequence | PBM E-score
GAGTGATA | inactive: 0.0675
AGAAGGAG | inactive: -0.134
ATGGCCGG | inactive: -0.214
CCCGCTCA | inactive: -0.198
AGGCGCAG | inactive: -0.154
TGCTCTAA | inactive: 0.0238
CGCTATGC | inactive: -0.174
GATATATA | inactive: 0.128
CAGTCTAC | inactive: -0.0372
ACTACTTC | inactive: 0.0868
AGGGAAAT | inactive: 0.00808
CGGCAACC | inactive: -0.158
GAATGCTA | inactive: -0.0409
CCTTCATC | inactive: -0.175
GGTATAAA | inactive: -0.0131
TAACATAA | active: 0.327
GACCGCTA | inactive: -0.177
ATTCTGTG | inactive: 0.132
GCCATTCC | inactive: -0.105
ACACCACC | inactive: 0.0972
GGCTTCTA | inactive: -0.0837
CGAAGCTC | inactive: -0.156
TACCACGA | inactive: 0.148
GGACTCGA | inactive: -0.0612
ATTGCGCA | inactive: -0.0488

Sequence | PBM E-score
ATTGGTTC | inactive: 0.0951
ATACGGTC | inactive: -0.0486
CGACACAC | inactive: 0.217
AAGCGAGG | inactive: -0.161
ATGCAGCC | inactive: 0.00431
AGACAGAG | inactive: 0.0189
CGGAATGA | inactive: 0.0236
CAAAACCG | inactive: -0.0536
GATCGAGA | inactive: 0.0375
GACTAAAC | inactive: -0.0493
TCTATACA | inactive: 0.147
CAAGCGTG | inactive: 0.0729
CGTACTAA | inactive: 0.193
AGTGGGCG | inactive: -0.124
AATCCGAC | inactive: 0.0721
GGTGGCCA | inactive: -0.164
GAAAGATA | inactive: 0.0349
ACGCTTCC | inactive: -0.131
ACAATGGA | inactive: 0.181
CGCTCCGA | inactive: -0.147
ACCCCCCA | inactive: -0.272
CGACTGAA | inactive: -0.136
CTGTACTC | inactive: 0.082
CGATTAGA | inactive: 0.105
GGTACCTA | inactive: 0.0649

Sequence | PBM E-score
ATCTTAGG | inactive: -0.15
AACCTCGT | ≥ 0.149
AGACTAGG | inactive: 0.0181
CGGATAGA | inactive: 0.0127
ATCAGATA | inactive: 0.16
GTGGTGGA | inactive: -0.109
CCCACAGA | inactive: -0.0301
ACCGCGGA | inactive: -0.137
ACTACCAA | inactive: 0.167
AGATAACC | inactive: -0.0458
AGTGAGAG | inactive: -0.0405
CAGAGACG | inactive: -0.0652
GCCCAGCA | inactive: -0.229
CGTTGACA | inactive: 0.221
GAAAGAAC | inactive: -0.00858
ACGGGGAC | inactive: -0.169
AGCTTTAC | inactive: -0.0134
AGGAAGAA | inactive: -0.0327
CTTGGCCA | inactive: -0.00859
CGGGTAGC | inactive: -0.229
ATATAGCC | inactive: 0.0657
GCCAGAAC | inactive: -0.0747
CTTGGCAC | inactive: -0.124
ACGTTTGA | inactive: 0.104
AGTTATAG | inactive: 0.0939

Sequence | PBM E-score
ATTACCTA | ≥ 0.0994
CCCAGGCC | inactive: -0.249
AGCTCGAC | inactive: -0.0593
GCGACTAA | inactive: 0.0539
CGGTTGTC | inactive: 0.185
GCCTGTAA | inactive: 0.09
ATATCTAC | inactive: 0.166
ATCTTCCA | inactive: 0.0064
AGTGTCCC | inactive: -0.0039
ATCAGGTC | inactive: 0.0488
GCTCATAA | inactive: -0.0637
AATAATCG | inactive: 0.111
AAAGTGGC | inactive: -0.146
GATGGGTA | inactive: 0.0458
ACCGGTAG | inactive: -0.112
AAACATGA | active: 0.409
TCTCTTAA | ≥ 0.063
GGGCCATA | inactive: -0.148
CTTCGCAA | inactive: -0.125
TATAGCGA | inactive: 0.0118
ACGGATAC | inactive: 0.132
CACCAGCC | inactive: -0.11
CTTTGACA | inactive: 0.223
CACAAGTC | inactive: 0.0837
GGCCTGGA | inactive: -0.239

Sequence | PBM E-score
ATGCTCGA | inactive: 0.0884
ATGATAAT | ≥ 0.219
CCGTCCCA | inactive: -0.179
AACCCGAA | inactive: -0.0947
TAGCACGA | inactive: 0.0496
ACCTCTTG | inactive: -0.0487
TGCTACCA | ≥ 0.0527
CTACACTC | inactive: 0.0931
CCGCGTCA | inactive: -0.126
AGACCCGA | inactive: -0.108
AACCCTCT | inactive: -0.089
AGCCTAGC | inactive: -0.195
TAGCGAGA | inactive: 0.0191
ATTTGCGG | inactive: -0.0153
CCGATGCC | inactive: -0.172
CAATCCTG | inactive: 0.0513
CACTCCGG | inactive: -0.0689
CGCCGGAC | inactive: -0.199
ATGGCTGA | inactive: 0.00468
AATCGAAG | inactive: 0.134
AGCTCGTC | inactive: -0.134
TTATGAAA | inactive: 0.0421
GCTGCAAA | inactive: 0.0079
GAATTAGA | inactive: -0.0102
ACACTTTG | ≥ 0.17

Sequence | PBM E-score
ACAACTTC | inactive: 0.195
CGGCCTCA | inactive: -0.2
CAGAGACA | inactive: 0.0246
CTCCCATC | inactive: -0.15
GCCACGGA | inactive: -0.18
AACAACTT | inactive: 0.2
ACACCTCT | inactive: 0.111
ATTAGTAG | inactive: 0.212
GACTATCC | inactive: -0.0569
CTCACCCA | inactive: -0.119
CCGGGTAC | inactive: -0.0624
CGGGCCCA | inactive: -0.239
AGGACCCC | inactive: -0.212
CCGATTCA | inactive: 2e-05
GTGGGAAA | inactive: -0.0925
CAACGACC | inactive: -0.0949
CCGCAAAA | inactive: -0.0913
ATTAGACC | inactive: -0.0254
AAAGCGGG | inactive: -0.178
CTCATGTA | active: 0.377
GCAACGAC | inactive: -0.0459
AATCGAAA | inactive: 0.0513
AGCAGATG | inactive: 0.0667
CCATTTCA | inactive: -0.127
TATAGAGA | inactive: 0.0379

Sequence | PBM E-score
CGCGACTC | inactive: -0.0643
CGTGACAC | inactive: 0.227
ATTTGAAG | inactive: -0.0234
GACCTACC | inactive: -0.0746
ATACCAGC | inactive: -0.0192
AGGTTGAT | inactive: 0.0309
CGATTACG | inactive: 0.101
ATATCGAC | inactive: 0.139
CGTATTCA | inactive: 0.0989
AGTTTGTA | inactive: 0.242
CGATCGGA | inactive: -0.0409
GAGACCAC | inactive: -0.0823
CAAGAGTA | inactive: 0.103
CCGACTCA | inactive: -0.0951
GCTCTCGA | inactive: -0.104
ACATAGGA | inactive: 0.22
ACTAGAGC | inactive: -0.0268
CAGCCGCC | inactive: -0.256
AGAAGAAA | inactive: -0.062
AATATAGC | inactive: -0.00463
CGCGGGGC | inactive: -0.234
GCTAGCAA | inactive: 0.00952
AATCGGGG | inactive: -0.185
GAGTTCGA | inactive: 0.049
ATATTACC | inactive: 0.186

Sequence | PBM E-score
TGCGCACA | ≥ 0.0432
AATTATCG | inactive: 0.101
TACTAGTA | ≥ 0.285
GAGGTCCC | inactive: -0.236
ACTAACAT | inactive: 0.307
ACCAAACG | inactive: -0.119
CTACTGTC | inactive: -0.00882
GAGTTTAC | inactive: -0.00241
ACTCCAGT | ≥ -0.0222
ACTCTTCG | inactive: 0.0397
GCCCTAAA | inactive: -0.236
GCCCCTTA | inactive: -0.237
GCTAACTA | inactive: 0.0176
AACGGCGT | inactive: -0.0513
CGACTTAG | inactive: -0.00603
AGTACGAG | inactive: 0.0724
CAAGCAGA | inactive: 0.0359
ATAGCGCC | inactive: -0.0914
ATTAGCTA | ≥ 0.129
CAACCGGC | inactive: -0.111
ATTCGCCC | inactive: -0.104
ACCCTGCG | inactive: -0.172
AAGTGCCT | inactive: -0.12
AGCACTAC | inactive: 0.0109
ATGAGCTG | inactive: -0.0339

Sequence | PBM E-score
ATGTGTAC | active: 0.348
GGCATTTA | inactive: -0.019
CCAGATAA | inactive: 0.0647
TGCCCAAA | inactive: -0.14
AACCTAAC | inactive: 0.00293
AAGGTGGG | inactive: -0.205
CCTGGTGC | inactive: -0.127
CCTATGGA | inactive: 0.00188
ACGCGTGG | inactive: -0.109
CAACTAAC | inactive: 0.134
CCAGACGC | inactive: -0.198
AAACGGAA | inactive: -0.0372
GCGGAGGA | inactive: -0.14
ACGAGTAT | inactive: 0.137
GGCAATCA | inactive: 0.0644
CATGTTGG | inactive: 0.285
ACCAAGCT | inactive: 0.098
CACCAGGG | inactive: -0.167
CTCCTTGA | inactive: -0.0809
AGTTGGAC | inactive: -0.0407
GGGCCGCA | inactive: -0.273
CCGTTAAC | inactive: 0.0319
AAAAAATT | inactive: 0.0131
AGTCCCAG | inactive: -0.111
